According to PubChem BioAssay AID1745853 (National Center for Advancing Translational Sciences (NCATS), 2022):
The other results are listed elsewhere or left out. Shown are side measurements of this screen, not its main read-out; they come without a call.

Assays:
Assay in all cases: Primary Screen for Target Class Profiling of Small Molecule Inhibitors of Methyltransferases
[1] = target: Glycine N-methyltransferase (Homo sapiens) (UniProt Q14749); details: purified enzyme, MTase-Glo SAH luminescence; measured here: GNMT inhibition; at 40 µM; stronger effect = lower value
Procedure, shortened: (§1)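 Each enzyme was reacted with SAM and its substrate, with compounds tested once at 40 uM; SAH formed was read by MTase-Glo luminescence.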

[2] = target: Guanidinoacetate N-methyltransferase (Homo sapiens) (UniProt Q14353); details: purified enzyme, MTase-Glo SAH luminescence; measured here: GAMT inhibition; at 40 µM; stronger effect = lower value
Procedure, shortened: as §1

[3] = target: Histamine N-methyltransferase (Homo sapiens) (UniProt P50135); details: purified enzyme, MTase-Glo SAH luminescence; measured here: HNMT inhibition; at 40 µM; stronger effect = lower value
Procedure, shortened: as §1

[4] = target: Nicotinamide N-methyltransferase (Homo sapiens) (UniProt P40261); details: purified enzyme, MTase-Glo SAH luminescence; measured here: NNMT inhibition; at 40 µM; stronger effect = lower value
Procedure, shortened: as §1

[5] = target: Phenylethanolamine N-methyltransferase (Homo sapiens) (UniProt P11086); details: purified enzyme, MTase-Glo SAH luminescence; measured here: PNMT inhibition; at 40 µM; stronger effect = lower value
Procedure, shortened: as §1
% is set by controls: 0 for no effect and ±100 for the full control effect.

| SMILES | activity change, negative = inhibition [1] [%] | activity change, negative = inhibition [2] [%] | activity change, negative = inhibition [3] [%] | activity change, negative = inhibition [4] [%] | activity change, negative = inhibition [5] [%] |
| --- | --- | --- | --- | --- | --- |
| COc1cc(NC(=O)N2Cc3ccccc3-n3cccc3C2C)cc(OC)c1 (stereo not given) | 2.53 | 1.17 | 0.641 | -0.906 | 5.29 |
| COc1ccc(C2c3cccn3-c3ccccc3CN2C(=O)NCc2ccco2)cc1OC (stereo not given) | 3.58 | 4.53 | -5.4 | -6.21 | -0.066 |
| CC[C@H]1C[C@H]2[C@@H]3CCC4=CC(=O)CC[C@@H]4[C@H]3CC[C@]2(C)[C@H]1O | -7.84 | 4.31 | 8.34 | -9.47 | 1.08 |
| COCCCNC(=O)N1Cc2ccccc2-n2cccc2C1c1cccc(C)c1 (stereo not given) | 5.91 | 2.98 | 1.01 | -2.73 | 0.98 |
| NC(=O)[C@@H](CC1CC1)[C@@H](CCC(F)(F)F)C(=O)N[C@H]1N=C(c2ccccc2)c2cccc(F)c2NC1=O | -1.58 | -3.03 | 5.48 | -14.5 | -0.781 |
| O=C(Nc1ccc(Cl)cc1)N1Cc2ccccc2-n2cccc2C1c1ccc(F)cc1 (stereo not given) | -1.35 | 5.09 | -0.391 | -4.56 | 1.01 |
| COc1cccc(CNC(=O)N2Cc3ccccc3-n3cccc3C2c2ccccc2Cl)c1 (stereo not given) | 2.91 | 1.08 | -0.979 | -1.23 | 0.227 |
| C[N+]1(CC2CC2)CC[C@]23c4c5ccc(O)c4O[C@H]2C(=O)CC[C@@]3(O)[C@H]1C5 (stereo not given in full) | – | 6.15 | – | -6.45 | 0.754 |
| COC1CC(O[C@H]2CC[C@]3(C)C4CC[C@]5(C)[C@@H](C6=CC(=O)OC6)[C@@H](OC(C)=O)C[C@]5(O)C4CC[C@@H]3C2)OC(C)C1O (stereo not given in full) | -0.818 | 3.4 | -2.25 | -5.58 | -1.79 |
| CC(=O)N(C)c1cccc(-c2ccnc3c(C(=O)c4cccs4)cnn23)c1 | -2.25 | 2.64 | 7.72 | -19.2 | 0.81 |
| COc1ccc(NC(=O)N2Cc3ccccc3-n3cccc3C2c2ccccc2C)cc1OC (stereo not given) | 7.11 | 4.19 | 5.41 | 4.68 | 3.22 |
| COc1ccc(C2c3cccn3-c3ccccc3CN2C(=O)Nc2ccc(F)c(Cl)c2)cc1 (stereo not given) | 7.58 | 1.34 | 2.57 | 2.92 | 5.91 |
| N#Cc1cccc(NC(=O)NC[C@H]2C[C@@H]3CCN2C[C@@H]3CN2CCN(c3ccccn3)CC2)c1 | -22.8 | 0.844 | -20.7 | -0.45 | -0.157 |
| NC(N)=NOCC[C@H](N)C(=O)O | -12.2 | -0.331 | -2.29 | -6.73 | 4.96 |
| N[C@@H](Cn1oc(=O)[nH]c1=O)C(=O)O | -11.2 | 1.32 | -2.23 | -4.53 | 4.17 |
| C/C=C(\C)C(=O)O[C@H]1[C@H](OC(C)=O)[C@]2(CO)[C@H](O)[C@H](O)[C@]3(C)C(=CCC4[C@@]5(C)CC[C@H](O[C@@H]6O[C@H](C(=O)O)[C@@H](O)[C@H](O[C@@H]7OC[C@H](O)[C@H](O[C@@H]8OC[C@H](O)[C@H](O)[C@H]8O)[C@H]7O)[C@H]6O[C@@H]6O[C@H](CO)[C@@H](O)[C@H](O)[C@H]6O)C(C)(C)C5CC[C@]43C)[C@@H]2CC1(C)C (stereo not given in full) | 2.04 | 4.61 | 6.05 | -6.09 | 7.86 |
| CC(C)(C)NC[C@H](O)c1ccc(O)cc1Cl | -7.72 | 5.97 | 4.39 | -9.26 | 0.157 |
| COc1cccc(NC(=O)N2Cc3ccccc3-n3cccc3C2c2ccc(C)cc2)c1 (stereo not given) | 3.75 | 3.33 | -3.84 | -4.88 | -0.148 |
| CN1C[C@@H]2CN(c3ccc(-c4ccccc4)nn3)C[C@@H]2C1 | -8.49 | 0.944 | -3.54 | -22.9 | -5.63 |

| SMILES | activity change, negative = inhibition [1] [%] | activity change, negative = inhibition [2] [%] | activity change, negative = inhibition [3] [%] | activity change, negative = inhibition [4] [%] | activity change, negative = inhibition [5] [%] |
| --- | --- | --- | --- | --- | --- |
| COc1ccc(C2c3cccn3-c3ccccc3CN2C(=O)Nc2cccc(Cl)c2)cc1 (stereo not given) | 9.94 | 3.73 | 3.41 | 1.28 | 7.22 |
| Cc1ccc(NC(=O)N2Cc3ccccc3-n3cccc3C2C)cc1 (stereo not given) | 10.6 | 1.58 | 9.25 | 5.25 | 7.68 |
| COc1ccc(NC(=O)N2Cc3ccccc3-n3cccc3C2C)c(OC)c1 (stereo not given) | 11.4 | 2.55 | 6.3 | 4.29 | 8.34 |
| CNC(=O)c1cc(C#N)cc(C)c1NC(=O)c1cc(Br)nn1-c1ncccc1Cl | -2.5 | 5.24 | 1.04 | -19.5 | -7.49 |
| CCOC(=O)c1ccc(NC(=O)N2Cc3ccccc3-n3cccc3C2c2cccc(Cl)c2)cc1 (stereo not given) | 8.23 | 0 | -1.86 | 4.75 | -3.22 |
| O=C(Nc1ccc(Cl)cc1)N1Cc2ccccc2-n2cccc2C1c1cccs1 (stereo not given) | 11.5 | 0 | 5.19 | 8.16 | 9.79 |
| CC1c2cccn2-c2ccccc2CN1C(=O)Nc1ccccc1C(F)(F)F (stereo not given) | 5.66 | 1.68 | 0.617 | 1.52 | 4.31 |
| CCOc1ccc(C2c3cccn3-c3ccccc3CN2C(=O)Nc2ccc(C)cc2)cc1 (stereo not given) | -2.61 | 7.2 | 8.21 | 6.58 | 3.6 |
| COCC(C(=O)OC1CC2CCC(C1)N2C)c1ccccc1 (stereo not given) | 4.98 | 9.66 | 8.72 | -3.92 | 4.95 |
| Cc1cccc(C2c3cccn3-c3ccccc3CN2C(=O)Nc2ccc(C)c(C)c2)c1 (stereo not given) | 3.99 | 0.353 | -6.12 | -5.29 | -0.011 |
| CC(C)=C1CC[C@]23CO[C@H](C2)[C@@](O)(C(=O)O)CCC13 (stereo not given in full) | -0.508 | -4.83 | 4.51 | -15.9 | 0.727 |
| CCc1ccc(C2c3cccn3-c3ccccc3CN2C(=O)NCc2ccc(C)cc2)cc1 (stereo not given) | 6.63 | 0.862 | 0.292 | -2.09 | 1 |
| COc1ccc2c(c1)C13CCCCC1C(C2)N(C)CC3 (stereo not given) | 7.43 | 14.1 | -33.9 | -7.25 | 3.14 |
| CCOC(=O)c1ccc(NC(=O)N2Cc3ccccc3-n3cccc3C2c2ccccc2Cl)cc1 (stereo not given) | 5.8 | 4.61 | -2 | -0.266 | 3.01 |
| CC1CCCC(=O)CCC/C=C/c2cc(O)cc(O)c2C(=O)O1 (stereo not given) | -73.3 | – | -75.7 | – | – |
| Cc1ccc(C2c3cccn3-c3ccccc3CN2C(=O)Nc2cccc(Cl)c2)cc1 (stereo not given) | 2.58 | 2 | -8.35 | -5.67 | -3.51 |
| CCC1c2cccn2-c2ccccc2CN1C(=O)Nc1ccc(C)c(F)c1 (stereo not given) | -0.567 | 4.58 | -0.928 | 1.25 | 3.49 |
| COc1cc2c(cc1Oc1ccccc1)NC(=O)C21CCN(CC2CC2)CC1 | -4.6 | -5.75 | -30.6 | -10.7 | -3.04 |
| CC(C)C1c2cccn2-c2ccccc2CN1C(=O)Nc1ccc(Cl)cc1 (stereo not given) | -4.87 | 0 | 1.86 | 3.64 | 2.1 |
